Assay results: PubChem BioAssay AID2546 (National Center for Advancing Translational Sciences (NCATS), 2010)
Values joined by “and” are separate entries in the source; they are usually repeats but may differ in a detail not shown here. Identical values can stand only once. Out of some 310,000 compounds screened, about 11,000 (3.5%) were called active. Inconclusive means that the source gave no clear call. Such entries were picked first, then a sample of the others. The call rests on the fitted dose curve; in most records, active means well fitted inhibition curve with a large enough effect; inconclusive means small, poorly fitted or top-dose-only effect, or effect the other way; inactive means flat fitted curve, though single readings scatter. Potencies beside an inconclusive call are fits to weak or partial responses and may not hold up.

Assay: VP16 counterscreen qHTS for inhibitors of ROR gamma transcriptional activity;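 further: Gal4-VP16 expression switched on by copper sulfate through the metallothionein promoter; nearly all actives have a fitted effect of over 50% in size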
Conditions: Drosophila S2 Gal4-VP16 UAS-luciferase, luminescence, 20 h; series mostly up to 53.6 µM
Potency means the concentration at half of the fitted maximal effect; tags describe the fitted curve by direction and shape.

Row | Structure (SMILES) | Potency
1 | COc1ccc2oc(=O)cc(CN(C)Cc3ccccc3)c2c1 | inconclusive: 35.5 µM [inhibitor, single point]
2 | CCOc1cccc(CN2CCC(CCC(=O)NC3CC3)CC2)c1O | inactive
3 | Cc1ccc(N2C(S)=C(C#N)C(=O)NC2c2cccs2)cc1 (stereo not given) | inconclusive: 35.5 µM [inhibitor, single point]
4 | CC(C)(C)C1CCC(=NNC(=S)NCc2ccccc2)CC1 (stereo not given) | inconclusive: 35.5 µM [inhibitor, single point]
5 | CC(=O)NCCC(=O)N1CCc2c([nH]c3ccccc23)C1c1cccc(C)c1 (stereo not given) | inconclusive: 15.8 µM [activator, single point]
6 | Cc1ccccc1OCC(O)Cn1c(Br)nc2c1c(=O)[nH]c(=O)n2C (stereo not given) | inactive
7 | O=C(COC(=O)Cc1c(Cl)cccc1Cl)Nc1ccccc1-c1ccccc1 | inconclusive: 35.5 µM [inhibitor, single point]
8 | CCCCN(Cc1ccccc1)S(=O)(=O)c1cc(Br)cc2c1N(C(C)=O)C(C)C2 (stereo not given) | inconclusive: 14.1 µM [inhibitor, single point]
9 | Cc1cccc(Cn2cccc2/C=C2/C(=N)N3C=CSC3=NC2=O)c1 | active: 7.94 µM
10 | COc1ccc2nc(SCC(C)=O)c(C#N)cc2c1 | inconclusive: 35.5 µM [inhibitor, single point]
11 | CC1CCCC(n2c(=S)[nH]c3ccccc3c2=O)C1C (stereo not given) | active: 0.631 µM
12 | O=C(Nc1nnc(-c2cccs2)o1)c1cccc(Oc2ccccc2)c1 | active: 0.562 µM
13 | C=CCNC(=S)NNC(=O)COc1cccc(Cl)c1 | active: 8.91 µM
14 | NNC(=O)CCN1CCN(Cc2ccccc2)CC1 | inconclusive: 14.1 µM [inhibitor, single point]
15 | Cc1c(C(=O)NC(=S)NCC(C)C)oc2ccccc12 | inconclusive: 5.62 µM [activator, single point]
16 | CC1CC(C)(C)NC(=S)N1CCCC(=O)Nc1ccc(Cl)cc1 (stereo not given) | inconclusive: 35.5 µM [inhibitor, single point]
17 | C=CCNC(=O)c1cn(CC)c2cc(N3CCN(C(=O)c4ccco4)CC3)c(F)cc2c1=O | inactive
18 | CSc1nnc(NC(=O)C23CC4CC(CC(C4)C2)C3)s1 | inconclusive: 35.5 µM [inhibitor, single point]
19 | CC1CC=CC2C1C(=O)N(Cc1ccccc1)C2c1ccc(F)c(Br)c1 (stereo not given) | inconclusive: 35.5 µM [inhibitor, single point]
20 | Clc1ccc(C2CC(c3cccs3)n3ncnc3N2)cc1Cl (stereo not given) | active: 17.8 µM
21 | O=C1c2ccccc2-c2cccnc21 | inconclusive: 12.6 µM [inhibitor, single point]
22 | Cc1cccc(-n2ncc3c(N4CC(C)CC(C)C4)ncnc32)c1 (stereo not given) | inconclusive: 28.2 µM [inhibitor, single point]
23 | O=C(O)c1c2c(nc3ccccc13)/C(=C/c1ccc(OC(F)F)cc1)CCC2 | inactive
24 | COc1cccc(N/C(=N/C(=S)Nc2ccc(C)cc2C)Nc2nc(C)cc(C)n2)c1 | active: 3.16 µM
25 | CCC(=O)c1cn(CC(=O)Nc2ccccc2F)c2ccccc12 | inactive

Row | Structure (SMILES) | Potency
26 | COCCN(C(=S)Nc1ccc(C(C)C)cc1)C(C)c1cccs1 (stereo not given) | inconclusive: 35.5 µM [inhibitor, single point]
27 | CC(C)Oc1ccc(CNC(=O)c2ccc3nc(N4CCOCC4)sc3c2)cc1 | inconclusive: 12.6 µM [inhibitor, partial curve]
28 | COc1ccc(NC(=O)c2ccc(-c3ccc(-c4noc(C)n4)cc3C)cc2)cc1OCCN(C)C | inconclusive: 15.8 µM [inhibitor, full curve, poor fit] and inconclusive: 35.5 µM [inhibitor, single point]
29 | N#Cc1ccc(CN2CC[C@@]3(CCCN(C(=O)c4cccc(F)c4)C3)C2)cc1 | inactive
30 | c1ccc(-c2nc(NCC3CCCO3)c3ccccc3n2)nc1 (stereo not given) | active: 7.08 µM
31 | O=c1c(O)c(-c2ccc(O)c(O)c2)oc2c(OC3OC(CO)C(O)C(O)C3O)c(O)cc(O)c12 (stereo not given) | inactive
32 | O=C(N/N=C/c1c[nH]c2ccccc12)c1ccc(Br)cc1 | inconclusive: 35.5 µM [inhibitor, single point]
33 | CCC(=O)N1CCc2cc(S(=O)(=O)NCCC(=O)N3CCN(c4cccc(C)c4)C(C)C3)ccc21 (stereo not given) | inactive
34 | Cc1c(OC(C)C(=O)NCC(O)c2ccccc2)ccc2c3c(c(=O)oc12)CCC3 (stereo not given) | inactive
35 | COc1cccc(C(=O)NC(=S)Nc2ccc3c4c(cccc24)CC3)c1 | active: 11.2 µM
36 | CN(C)CCCN(C(=O)CCSc1ccccc1)c1nc2cc3c(cc2s1)OCO3 | inactive
37 | CCC1=NN(C(=O)c2ccccc2O)C(O)(c2ccccc2)C1 (stereo not given) | active: 7.94 µM
38 | CCS(=O)(=O)c1ccc2c(c1)N(S(=O)(=O)c1ccc(OC)cc1)CC(C(=O)O)O2 (stereo not given) | inconclusive: 11.2 µM [inhibitor, single point]
39 | O=C1N=C(N2CCOCC2)S/C1=C/c1cccs1 | inconclusive: 0.891 µM [inhibitor, full curve]
40 | COc1ccc(NC(=O)C(=O)NNC(=O)COc2ccc(Cl)cc2)c(OC)c1 | inconclusive: 35.5 µM [inhibitor, single point]
41 | CC1CN(c2ccc([N+](=O)[O-])cc2F)CCN1C(=O)c1ccco1 (stereo not given) | inconclusive: 35.5 µM [inhibitor, single point]
42 | Cc1ccccc1OCCSCc1nc2ccccc2[nH]1 | inconclusive: 35.5 µM [inhibitor, single point]
43 | COc1ccc(N/C=C\C(=O)c2ccc3c(c2)OCO3)cc1OC | inactive
44 | Cc1ccc(CS(=O)(=O)CCC(=O)O)cc1 | inactive
45 | Fc1ccccc1-c1nc(-c2ccc(Br)o2)no1 | inactive
46 | N/C(Cc1ccc([N+](=O)[O-])cc1)=N\OC(=O)CC1CCCCC1 | active: 12.6 µM
47 | O=C(CCc1ccccc1)NC(NC(=S)Nc1ccc(Cl)cc1)C(Cl)(Cl)Cl (stereo not given) | inconclusive: 31.6 µM [inhibitor, single point]
48 | COc1cccc(/C=C/C(=O)Nc2cccc(C(C)=O)c2)c1OC | inconclusive: 2.51 µM [inhibitor, full curve]
49 | Cc1oc2c(CN3CCCCC3)c(O)ccc2c(=O)c1-c1ccc(Cl)cc1 | inactive
50 | COCC(=O)N1CCC(Oc2ccc(C(=O)NC3Cc4ccccc4C3)cc2)CC1 | inactive

Row | Structure (SMILES) | Potency
51 | CC(C)=CCC/C(C)=C/C=N/NC(=O)c1cccc([N+](=O)[O-])c1 | active: 1.41 µM
52 | CCCCc1ccc(NC(=S)N2CCN(C)CC2)cc1 | inconclusive: 35.5 µM [inhibitor, single point]
53 | O=C(c1cc(-c2ccc(Cl)cc2Cl)on1)N1CCCCCC1 | inconclusive: 22.4 µM [inhibitor, single point]
54 | C=CCn1c(SCC(=O)NC2CCCC2)nc2c([nH]c3ccccc32)c1=O | inactive
55 | N#Cc1c(NC(=O)CSc2nc(N)cc(=O)[nH]2)sc2c1CCCC2 | inconclusive: 6.31 µM [inhibitor, partial curve]
56 | Cc1ccc(C(=O)NCCN2CCOCC2)cc1C | inactive
57 | Cc1ccc(CNC(=O)CS(=O)Cc2nc(-c3ccccc3F)oc2C)cc1 (stereo not given) | inconclusive: 35.5 µM [inhibitor, single point]
58 | C/C(=N\NC(=O)c1cc2ccccc2cc1O)c1cc2ccccc2o1 | inconclusive: 28.2 µM [inhibitor, single point]
59 | Cc1[nH]n(-c2ccccc2)c(=O)c1C(C[N+](=O)[O-])c1ccc(Cl)cc1 (stereo not given) | inconclusive: 35.5 µM [inhibitor, single point]
60 | COc1ccc(OCCNC(=S)Nc2cccc3ccccc23)cc1 | active: 6.31 µM
61 | O=C(NCCN1CCN(c2ccccc2)CC1)c1ccc(NC(=O)C2CCCO2)cc1 (stereo not given) | inconclusive: 6.31 µM [inhibitor, single point]
62 | CNC(=O)C1(C(F)(F)F)C/C(=C\Cc2ccccc2)CCCO1 (stereo not given) | inactive
63 | COc1ccc(/C=C2\N=C(SC)NC2=O)cc1 | inconclusive: 25.1 µM [inhibitor, single point]
64 | O=C(Nc1nc(-c2ccccn2)cs1)Nc1ccc(F)cc1F | inconclusive: 2.82 µM [inhibitor, partial curve, poor fit]
65 | CC(C)c1ccc(/C=N/n2c(COc3ccccc3)n[nH]c2=S)cc1 | active: 10 µM
66 | O=C(Nc1ccccn1)c1sc2cc([N+](=O)[O-])ccc2c1Cl | inconclusive: 22.4 µM [inhibitor, single point]
67 | Cc1ccc(C2C=C(c3ccc4c(c3)OCO4)Nc3ncnn32)cc1 (stereo not given) | inactive
68 | COc1cc(/C=C(\C#N)C(=O)Nc2ccc3c(c2)OCCO3)ccc1O | inconclusive: 28.2 µM [inhibitor, single point]
69 | CCn1c(=O)c(C(=O)CN2CCc3ccccc32)c(N)n(Cc2ccccc2)c1=O | inactive
70 | Cc1cccc(C(=O)N[C@H](C(=O)Nc2ccc(S(=O)(=O)NC3=NCCCCC3)cc2)C(C)C)c1 | inactive
71 | CC(=O)c1cccc(NC(=O)C23CC4CC(C2)CC(n2cncn2)(C4)C3)c1 | inconclusive: 35.5 µM [inhibitor, single point]
72 | CN(C)S(=O)(=O)c1ccc2nc(NC(=O)c3cccnc3)sc2c1 | inactive
73 | O=c1[nH]cccc1-c1nc2ccccc2n1Cc1cccc(Cl)c1 | inconclusive: 22.4 µM [inhibitor, single point]
74 | Cc1ccc(-c2nc3ccccc3n2C)o1 | inconclusive: 35.5 µM [inhibitor, single point]
75 | O=C(O)c1cnn(-c2nc(-c3ccc(Br)cc3)cs2)c1C(F)(F)F | inconclusive: 2.82 µM [inhibitor, full curve, poor fit]
